# In all, about 310,000 compounds went through this assay and about 18,000 (5.8%) were called active. The inconclusive results got no clear call from the source; some entries with a clear call stand among them for comparison. The call rests on the fitted dose curve; in most records, active means well fitted inhibition curve with a large enough effect; inconclusive means small, poorly fitted or top-dose-only effect, or another doubt; inactive means no such curve, though single readings can be large or run the other way. No potency is given beside an inconclusive call; the fits are too rough.
# Assay: Primary qHTS for delayed death inhibitors of the malarial parasite plastid, 48 hour incubation
# Details: P. falciparum luciferase growth in erythrocytes; series mostly up to 28.7 µM
# Outline: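 Cell-based growth assay: transgenic P. falciparum expressing firefly luciferase, cultured in red cells within RPMI 1640 containing 0.5% w/v Albumax, 24 mM bicarbonate and gentamycin. A drop in luciferase activity indicates inhibition.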
# Potency means the concentration at half of the fitted maximal effect; tags describe the fitted curve by direction and shape.
row,Structure (SMILES),Potency
1,O=C(NC1CCN(C(=O)C2CCCCC2)CC1)c1ccccc1,inactive
2,O=C(CC(c1ccccc1)c1cc(Br)ccc1O)NCCN1CCOCC1 (stereo unspecified),"inconclusive [inhibitor, single point]"
3,CCC(CC)NC(=O)CN(c1ccccc1OC)S(=O)(=O)c1cccs1,"inconclusive [inhibitor, partial curve, poor fit]"
4,CCN(CCCNC(=O)CNC(=O)c1nn(-c2ccc(OC)c(OC)c2)c(=O)c2ccccc12)c1ccccc1,active: 11.7 µM
5,C=CCN1C(=O)c2ccccc2Sc2ccc(C(=O)NC(C)C)cc21,inactive
6,CCc1ccc(N2CC(C(=O)Nc3cc(C)ccc3F)CC2=O)cc1 (stereo unspecified),inactive
7,COc1ccc(CCNC(=O)Cn2nnc(-c3cccs3)n2)cc1OC,inactive
8,CC(=O)c1ccc(N2CCN(C(=O)c3ccc4c(Cl)c5c(nc4c3)CCCC5)CC2)cc1,"inconclusive [inhibitor, full curve, poor fit]"
9,CCc1nc(SCC(=O)Nc2ccc(F)cc2)c2c(=O)n(C)c(=O)n(C)c2n1,"inconclusive [inhibitor, single point]"
10,Cc1cc(C)c2cc(CN(CCO)C(c3nnnn3Cc3ccc(F)cc3)C(C)C)c(=O)[nH]c2c1 (stereo unspecified),"inconclusive [inhibitor, single point]"
11,Cc1ccc(S(=O)(=O)N2CCC(C(=O)N3CCc4ccccc43)CC2)cc1C,"inconclusive [inhibitor, single point]"
12,NNC(=O)Cn1c(-c2ccccc2)cc(=O)n2ncnc12,inactive
13,CC(C)(C)n1nc2c(c1NC(=O)c1ccco1)CS(=O)C2 (stereo unspecified),"inconclusive [inhibitor, single point]"
14,CCCCNC(=S)Nc1ccc([N+](=O)[O-])cc1,"inconclusive [inhibitor, single point]"
15,Cc1ccccc1NS(=O)(=O)c1ccc(-c2ccc(=O)[nH]n2)o1,inactive
16,Oc1ccc(C2=NN(c3ccccc3)C(c3ccc(F)cc3)C2)cc1 (stereo unspecified),active: 9.28 µM
17,COc1cc(C(C)=O)ccc1COc1ccc(C(=O)OCC(=O)NC(C)(C)C)cc1OC,"inconclusive [inhibitor, partial curve, poor fit]"
18,CC(C)[C@H](NC(=O)c1cc2cc(Cl)ccc2n1C)C(=O)N1CCC(C(=O)O)CC1,inactive
19,CCCC(O)(c1ccc(OC)cc1)C(CN1CCOCC1)c1ccccc1 (stereo unspecified),"inconclusive [inhibitor, partial curve]"
20,Cc1cc(C)c(OCC(=O)Nc2cc(C(=O)O)cc(C(=O)O)c2)cc1C,"inconclusive [inhibitor, partial curve, poor fit]"
21,COc1ccccc1N(CCC#N)C(=O)CSc1nc(-c2ccccc2)cn1N,"inconclusive [inhibitor, single point]"
22,CCN(c1ccc(F)cc1)S(=O)(=O)c1cccc2nsnc12,"inconclusive [inhibitor, partial curve, poor fit]"
23,O=C(CC(c1ccccc1)c1ccccc1)OCn1nnc2ccccc2c1=O,inactive

row,Structure (SMILES),Potency
1,Cc1cc(C)c(C2=NOC3C4CCC(C4)C23)c(C)c1 (stereo unspecified),inactive
2,COc1ccc(CCNC(=O)CCn2c(SCC(=O)N3CCCC3)nc3ccccc3c2=O)cc1OC,"inconclusive [inhibitor, single point]"
3,CC(=O)c1cc(C#N)c(SCc2ccccc2C#N)nc1C,"inconclusive [inhibitor, single point]"
4,COc1ccc(C(c2nnnn2Cc2ccccc2)N2CCN(c3ccccc3)CC2)cc1 (stereo unspecified),"inconclusive [inhibitor, single point]"
5,O=C(NNC(=S)NC(=O)c1ccccc1[N+](=O)[O-])c1ccccc1O,"inconclusive [inhibitor, single point]"
6,COc1cc(S(=O)(=O)NC2CCCCC2C)ccc1-n1cnnn1 (stereo unspecified),"inconclusive [inhibitor, partial curve, poor fit]"
7,Cc1occc1C(=O)NC1CCCc2ccccc21 (stereo unspecified),active: 13.1 µM
8,Cc1ccc(-c2c(C(=O)NC(C)C)oc(=O)c3ccccc23)cc1,inactive
9,COc1cc(NC(=S)Nc2ccc(Br)cc2Cl)c(OC)cc1Cl,"inconclusive [inhibitor, single point]"
10,CC(C)(C)c1ccc(OCCC(=O)Nc2cccc(S(=O)(=O)N3CCOCC3)c2)cc1,"inconclusive [inhibitor, partial curve, poor fit]"
11,CC(=O)c1c(C)n(-c2ccccc2)c2ccc(OCC(N)=O)cc12,inactive
12,CCOC(=O)C1C(C(=O)NN)C1C(=O)Nc1ccccc1 (stereo unspecified),active: 13.1 µM
13,Clc1ccc(C2=NNC(=NCc3ccccc3)SC2)cc1,"inconclusive [inhibitor, single point]"
14,CCOC(=O)c1ccc(NC(=O)Nc2cc(C)on2)cc1,"inconclusive [inhibitor, single point]"
15,O=c1ccc(=O)n(-c2ccccc2)[nH]1,inactive
16,CCOC(=O)[C@@H]1[C@H]2COc3ccccc3[C@@H]2N2C(=O)N(c3ccc(Cl)cc3)C(=O)[C@@]12C,inactive
17,Cc1cccc(NC(=O)C2CCN(C(=O)c3ccc(Cl)cc3)CC2)n1,"inconclusive [inhibitor, single point]"
18,CC1(C)CC(N2CCOCC2)=CC(=[N+]2CCOCC2)C1,active: 13.1 µM
19,O=C(Nc1ccc2c(c1)C(=O)OC2)c1ccccc1Cl,inactive
20,Cc1cc(C(=O)OCC(=O)N(C)c2ccccc2)ccc1[N+](=O)[O-],inactive
21,Cc1ccc(C)c(OCC(=O)Nc2nonc2NC(=O)COc2cc(C)ccc2C)c1,"inconclusive [inhibitor, full curve, poor fit]"
22,Cc1ccc(-c2nc(-c3cccnc3)sc2CC(=O)Nc2ccc3nc(C)sc3c2)cc1,"inconclusive [inhibitor, single point]"
23,Cc1cc(Nc2cccc(F)c2)nc(-c2ccccc2O)n1,"inconclusive [inhibitor, single point]"

# Reference: PubChem BioAssay AID504832 (National Center for Advancing Translational Sciences (NCATS), 2011)
